# The whole screen tested about 310,000 compounds, of which about 14,000 (4.5%) showed an effect of 50% or more. Effects have a minus sign here. Some of the results follow.
# Target: human ether-à-go-go-related gene (hERG) potassium channel (human, UniProt Q12809)
# Experiment: primary screen, population patch clamp on CHO cells stably expressing hERG
# 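Further: peak tail current of the secondary pulse compared with the same well before compound.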
# Sequence of human ether-à-go-go-related gene (hERG) potassium channel (Q12809 whole entry, looked up): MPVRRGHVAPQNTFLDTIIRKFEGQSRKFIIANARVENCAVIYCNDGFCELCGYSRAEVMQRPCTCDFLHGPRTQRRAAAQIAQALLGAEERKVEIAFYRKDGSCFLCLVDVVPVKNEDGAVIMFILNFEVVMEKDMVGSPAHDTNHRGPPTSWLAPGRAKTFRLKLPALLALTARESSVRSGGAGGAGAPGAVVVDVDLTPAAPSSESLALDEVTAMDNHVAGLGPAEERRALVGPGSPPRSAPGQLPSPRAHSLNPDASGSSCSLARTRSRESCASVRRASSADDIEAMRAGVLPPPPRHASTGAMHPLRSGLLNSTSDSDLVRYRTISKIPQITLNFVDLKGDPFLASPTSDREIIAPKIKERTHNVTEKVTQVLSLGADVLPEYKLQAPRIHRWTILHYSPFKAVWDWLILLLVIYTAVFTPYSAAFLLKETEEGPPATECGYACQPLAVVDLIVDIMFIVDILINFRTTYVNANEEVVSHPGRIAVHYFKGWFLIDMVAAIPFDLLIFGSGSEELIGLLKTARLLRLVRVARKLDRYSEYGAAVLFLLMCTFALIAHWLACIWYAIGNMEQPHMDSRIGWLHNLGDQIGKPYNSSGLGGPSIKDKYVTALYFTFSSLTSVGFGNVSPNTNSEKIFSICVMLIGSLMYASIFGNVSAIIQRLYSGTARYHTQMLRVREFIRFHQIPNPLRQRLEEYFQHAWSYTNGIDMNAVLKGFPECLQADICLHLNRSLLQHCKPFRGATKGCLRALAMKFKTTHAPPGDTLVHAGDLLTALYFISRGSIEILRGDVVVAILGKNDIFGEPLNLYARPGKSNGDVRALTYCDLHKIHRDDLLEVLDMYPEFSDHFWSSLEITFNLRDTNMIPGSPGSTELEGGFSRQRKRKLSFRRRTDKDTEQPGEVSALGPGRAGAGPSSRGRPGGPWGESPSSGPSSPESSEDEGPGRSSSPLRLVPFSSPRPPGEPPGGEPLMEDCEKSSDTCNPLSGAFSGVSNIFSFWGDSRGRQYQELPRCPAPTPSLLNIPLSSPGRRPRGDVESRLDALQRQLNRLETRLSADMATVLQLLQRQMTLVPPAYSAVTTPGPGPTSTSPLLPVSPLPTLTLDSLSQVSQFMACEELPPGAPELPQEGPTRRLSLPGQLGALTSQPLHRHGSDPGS
row,SMILES,"hERG current change (%, negative = inhibition) at 10uM [%]"
1,COc1ccc(/C=C(\C#N)C(=O)ONC2=NCCCCC2)cc1,25.3
2,O=C(NNC(=O)c1ccccc1O)c1ccc(Cl)c(S(=O)(=O)N2CCc3ccccc32)c1,-3.31
3,Cc1noc(C)c1COC(=O)COc1ccc(C#N)cc1,2.8
4,O=c1[nH]cnc2sc3c(c12)CCN(Cc1ccccc1)C3,16.1
5,COC(=O)c1ccc(Cc2ccccc2)o1,1.41
6,Cl.N/C(=N\N=C/c1ccc(Br)cc1)N/N=C\c1ccc(Br)cc1,16
7,COC(=O)c1ccc(NC(=S)NCCc2ccc(OC)cc2)cc1,22
8,CC(C)C(=O)Nc1ccc(C(=O)c2ccccc2)cc1,-19.8
9,CN(CCOC(=O)c1cccc(F)c1)Cc1ccccc1.Cl,-28.1
10,Clc1ccc(/C=C/c2ncc3ccccn23)cc1,3.23
11,CC1(C)Cc2c(sc(NC(=O)c3ccc(S(=O)(=O)N4CCCC4)cc3)c2C#N)C(C)(C)N1,-8.79
12,Cc1ccc(F)c(NC(=O)C2CCCCC2C(=O)O)c1 (stereo not shown),8.23
13,CCn1c(CCNC(=O)c2ccc(Cl)cc2Cl)n[nH]c1=S,-10.3
14,O=C(Cn1c(=O)n(Cc2ccc(F)cc2)c(=O)c2ccccc21)NCC1CCCO1 (stereo not shown),-2.66
15,O=C(COC(=O)c1ccccc1SCC(=O)N1CCCC1)NCc1ccccc1,-12.1
16,NC(=O)c1c(NC(=O)c2cccnc2Cl)sc2c1CCCC2,-1.56
17,N#CSc1ccc2oc(C3=NCCN3)cc2c1,0.521
18,Cc1ccc(-c2nnc(SCC(=O)NNC(=O)COc3ccccc3C)n2C)cc1,12.7
19,O=[N+]([O-])c1ccc(CN2CCN(c3ccccc3Cl)CC2)o1,11.9
20,COc1ccc(OCC(=O)N/N=C\c2ccco2)cc1,10.6

row,SMILES,"hERG current change (%, negative = inhibition) at 10uM [%]"
1,O=C(Cc1coc2ccc3ccccc3c12)NCc1ccccc1,-4.58
2,Cc1cc(Cl)ccc1OCC(=O)OCC(=O)Nc1ccc(F)c([N+](=O)[O-])c1,-1.18
3,Cc1cc(C(=O)NCCC2=CCCCC2)ccc1[N+](=O)[O-],-27.5
4,O=C(COC(=O)c1n[nH]c2ccccc12)NCc1ccccc1,-24.5
5,COc1ccccc1CC(=O)Nc1ccc([N+](=O)[O-])cc1OC,5.69
6,O=C(CCC(=O)c1ccccc1)Nc1ccccc1,17.5
7,CCOC(=O)C1CCCN(CCC(=O)Nc2ccc(C)cc2)C1.Cl (stereo not shown),-30.4
8,COc1ccc(C(=O)Nc2ccccc2C(=O)NCCN2CCOCC2)cc1,-9.6
9,COc1ccc(NC(=O)CSCC(=O)Nc2ccc(C)c(S(=O)(=O)N3CCCCCC3)c2)cc1,-36.9
10,CCNC(=S)N/N=C(\C)c1ccc2ccccc2c1,13.8
11,O=C(CCC(NC(=O)OCc1ccccc1)C(=O)OCC(=O)N1CCCCC1)OCC(=O)N1CCCCC1 (stereo not shown),2.72
12,COc1ccc(C(=O)CN(CCC(=O)O)S(=O)(=O)c2ccc([N+](=O)[O-])cc2)cc1,-1.15
13,O=C(Nc1ccc2c(c1)CN(Cc1ccc(CO)o1)CC2)c1ccc(C(F)(F)F)cc1,-24.1
14,Oc1ccc(Br)cc1/C=N/N1CCN(Cc2ccccc2)CC1,9.35
15,CCN(/C(N)=N/c1nc(C)cc(C)n1)c1ccccc1,-6.01
16,Cc1ccc(NC(=O)COC(=O)C2CC3C=CC2C3)cc1S(=O)(=O)N1CCCCC1 (stereo not shown),-7.32
17,CCOC(=O)c1c(S(=O)(=O)N(C)Cc2ccco2)c(C)n(C)c1C,-3.13
18,CCCCN1C(=O)c2ccc(C(=O)Nc3ccccc3N3CCOCC3)cc2C1=O,7.18
19,COc1cc(N/N=C/c2ccccc2O)ncn1,4.11
20,CCOC(=O)c1c(NC(=O)c2c(C)noc2C)sc2c1CCCCC2,6.51

row,SMILES,"hERG current change (%, negative = inhibition) at 10uM [%]"
1,COc1cc(NS(=O)(=O)c2ccc(N/C=C(\C#N)c3nc4cc(Cl)ccc4o3)cc2)nc(OC)n1,-7.44
2,Oc1ccccc1-c1nnc(COc2ccc(Cl)cc2Cl)o1,7.42
3,Cc1csc(=O)n1CC(=O)OCc1cccc2ccccc12,-9.39
4,O=C(/C=C/c1cccc([N+](=O)[O-])c1)NC1CC2CCC1C2 (stereo not shown),-24.7
5,CCOc1cc(/C=C2\CN(C)C/C(=C\c3ccc(O)c(OCC)c3)C2=O)ccc1O.Cl,10.1
6,O=C(COc1ccc(Cl)cc1)N(Cc1ccco1)C1CCS(=O)(=O)C1 (stereo not shown),-20.5
7,COc1ccc(/C=C(\C#N)C(=O)C(C)(C)n2cncn2)cc1,26.6
8,CCNC(=S)Nc1ccc(C)c(Cl)c1,6.69
9,COc1ccc2cc(/C=N/NC(=O)CN(c3ccccc3)S(=O)(=O)c3ccccc3)c(Cl)nc2c1,-2.5
10,O=C(NC12CC3CC(CC(C3)C1)C2)c1ccc(COc2ccc(Cl)cc2[N+](=O)[O-])o1,13.5
11,Cc1cccc(N2C(=O)C3CC3C2=O)c1 (stereo not shown),26
12,Cc1cc(=O)n2[nH]c(C(=O)O)nc2n1,18.6
13,Cc1csc(NC(=O)Cc2c[nH]c3ccccc23)n1,-12.6
14,CC1=C(C(=O)OC(C)C)C(c2ccc(Br)s2)NC(=O)N1C (stereo not shown),-18.8
15,CCOC(=O)N1CCN(C(=O)c2ccccc2N(C)S(C)(=O)=O)CC1,-5.89
16,CC(=O)NCCC(=O)N1CCCC(C(=O)c2ccc3c4c(cccc24)CC3)C1 (stereo not shown),-18.5
17,O=C1OCCC1Sc1nnc(-c2ccccc2)o1 (stereo not shown),-7.03
18,O=C(CSc1nc2ccccc2c(=O)[nH]1)c1ccccc1,2.19

# From paper PMC4336329 (PLoS ONE, 2015)
